# Reference: the supplement of paper PMC11060735
# Counter-ions that a name gives are not always drawn. Among all 1,800 compounds or so, about 50 (3%) showed activity. This is one part of the list.
# Test system: mouse p16Ink4a+/- lung fibroblasts (INKBRITE, bleomycin-injured)
# Assay: percentage of GFP+ (p16Ink4a+) fibroblasts among all cells in well; higher = less depletion of p16Ink4a+ cells, active = 20 or less
# Conditions: 1 µM; 3 days
# 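Also: fibroblasts sorted 14 days after bleomycin, GFP+ and GFP− mixed 1:1 in 384-well plates (GFP− as in-well control), imaged after Hoechst and NucView530 staining, reference wells lacked compound.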
row,SMILES,percentage of GFP+
1,O=C(O)c1ccccc1O [Salicylic Acid],inactive: 46.6%
2,CCCCOc1cc(C(=O)OCCN(CC)CC)ccc1N [Oxybuprocaine],inactive: 43.5%
3,CN1CC[C@@H](c2c(O)cc(O)c3c(=O)cc(-c4ccccc4Cl)oc23)[C@@H]1CO,inactive: 20.2%
4,CC(C)c1cnn2c(NCc3ccccc3)cc(NCCCCCCN)nc12,inactive: 34.8%
5,Cn1cnc(-c2cc3nccc(Oc4ccc(NC(=S)NC(=O)Cc5ccccc5)cc4F)c3s2)c1,inactive: 36.4%
6,Cc1onc(-c2ccccc2Cl)c1C(=O)N[C@@H]1C(=O)N2[C@@H]1SC(C)(C)[C@@H]2C(=O)O [Cloxacillin],inactive: 43.1%
7,CC(C(O)c1ccc(O)cc1)N1CCC(Cc2ccccc2)CC1 (configuration not stated) [Ifenprodil],inactive: 47%
8,N=C(N)/N=C(\N)N1CCOCC1 [Moroxydine Hydrochloride],inactive: 40%
9,CCOc1nc2cccc(C(=O)O)c2n1Cc1ccc(-c2ccccc2-c2noc(O)n2)cc1 [Azilsartan],inactive: 52.8%
10,O=c1cc(-c2ccc(O)cc2)oc2cc(O)cc(O)c12 [Apigenin],inactive: 37.2%
11,O=C1c2c(O)ccc(O)c2C(=O)c2c(NCCNCCO)ccc(NCCNCCO)c21 [Mitoxantrone],inactive: 35.4%
12,Cc1cncc(CN2CCC(=C3c4ccc(Cl)cc4CCc4cccnc43)CC2)c1 [Rupatadine],inactive: 37.6%
13,NC(=O)c1ccc(I)c([N+](=O)[O-])c1 [Iniparib],inactive: 40.5%
14,CC[N+](CC)(CC)CCOc1cccc(OCC[N+](CC)(CC)CC)c1OCC[N+](CC)(CC)CC [Gallamine Triethiodide],inactive: 36%
15,Cn1cc(C2=C(c3ccc(Cl)cc3Cl)C(=O)NC2=O)c2ccccc21,inactive: 47.8%
16,CC(C)(Oc1ccc(Cl)cc1)C(=O)OCCOC(=O)c1cccnc1 [Etofibrate],inactive: 50.4%
17,O=C(CCc1ccc(O)cc1)c1c(O)cc(O)cc1O [Phloretin],inactive: 45.6%
18,CCCC(=O)Nc1ccc(OCC(O)CNC(C)C)c(C(C)=O)c1 (configuration not stated) [Acebutolol],inactive: 52%
19,Nc1ncnc2c1c(-c1cnc3[nH]ccc3c1)nn2C1CCCC1,inactive: 22%
20,CC(=O)O[C@H]1CC[C@@]2(C)C(=CC[C@H]3[C@H]2CC[C@]2(C)C(c4cccnc4)=CC[C@@H]32)C1 [Abiraterone Acetate],inactive: 31.7%
21,O=P(O)(O)C(O)(Cn1ccnc1)P(=O)(O)O [Zoledronic Acid],inactive: 49.5%
22,CC[C@H]1OC(=O)[C@H](C)[C@@H](O[C@H]2C[C@@](C)(OC)[C@@H](O)[C@H](C)O2)[C@H](C)[C@@H](O[C@@H]2O[C@H](C)C[C@H](N(C)C)[C@H]2O)[C@@](C)(O)C[C@@H](C)[C@@H]2N[C@@H](COCCOC)OC([C@H]2C)[C@]1(C)O [Dirithromycin],inactive: 47.1%
23,"COc1cccc2c1C(=O)c1c(O)c3c(c(O)c1C2=O)C[C@@](O)(C(=O)CO)C[C@@H]3O[C@H]1C[C@H](N)[C@@H](O)[C@H](C)O1 [Epirubicin, Epirubicin Hydrochloride]",inactive: 25.6%

row,SMILES,percentage of GFP+
1,N[C@@]1(C(=O)O)CS(=O)(=O)[C@H]2[C@H](C(=O)O)[C@H]21,inactive: 47.9%
2,O=C(/C=C\n1cnc(-c2cc(C(F)(F)F)cc(C(F)(F)F)c2)n1)NNc1cnccn1 [Selinexor (KPT-330)],active: 14.7%
3,O=C(NOC[C@H](O)CO)c1ccc(F)c(F)c1Nc1ccc(I)cc1F,inactive: 31.7%
4,CCC(=O)O[C@]1(C(=O)CCl)[C@@H](C)C[C@H]2[C@@H]3CCC4=CC(=O)C=C[C@]4(C)[C@@]3(F)[C@@H](O)C[C@@]21C [Clobetasol Propionate],inactive: 32.2%
5,COCCc1ccc(OCC(O)CNC(C)C)cc1 (configuration not stated) [Metoprolol],inactive: 42.5%
6,C=CC(=O)Nc1cccc(Sc2nc(Nc3ccc(N4CCN(C)CC4)cc3)ncc2Cl)c1,inactive: 46.3%
7,CC[C@H]1OC(=O)[C@H](C)[C@@H](O[C@H]2C[C@@](C)(OC)[C@@H](O)[C@H](C)O2)[C@H](C)[C@@H](O[C@@H]2O[C@H](C)C[C@H](N(C)C)[C@H]2O)[C@](C)(OC)C[C@@H](C)C(=O)[C@H](C)[C@@H](O)[C@]1(C)O [Clarithromycin],inactive: 48.3%
8,CCOC(=O)OC(C)OC1=C(C(=O)Nc2ccccn2)N(C)S(=O)(=O)c2ccccc21 (configuration not stated) [Ampiroxicam],inactive: 42.1%
9,CN1CCC(=C2c3ccccc3C=Cc3ccccc32)CC1 [Cyproheptadine],inactive: 51.8%
10,CC[C@@H](C)C[C@@H](C)CCCCCCCCC(=O)N[C@H]1C[C@@H](O)[C@@H](NCCN)NC(=O)[C@@H]2[C@@H](O)CCN2C(=O)[C@H]([C@H](O)CCN)NC(=O)[C@H]([C@H](O)[C@@H](O)c2ccc(O)cc2)NC(=O)[C@@H]2C[C@@H](O)CN2C(=O)[C@H]([C@@H](C)O)NC1=O [Caspofungin Acetate],inactive: 45.6%
11,CC(=O)OCC(CCn1cnc2cnc(N)nc21)COC(C)=O [Famciclovir],inactive: 34%
12,Clc1ccc(C(Cn2ccnc2)OCc2ccc(Sc3ccccc3)cc2)c(Cl)c1 (configuration not stated) [Fenticonazole Nitrate],inactive: 34.6%
13,COc1ccccc1N1CCN(CCN(C(=O)C2CCCCC2)c2ccccn2)CC1,inactive: 47.8%
14,Cc1onc(-c2ccccc2)c1-c1ccc(S(N)(=O)=O)cc1 [Valdecoxib],inactive: 49.3%
15,C=CCc1cc(OC)c(O)c(C(=O)NCCO)c1 [Alibendol],inactive: 42.5%
16,COC(=O)N[C@H](C(=O)N1CCC[C@H]1c1nc(-c2ccc(-c3ccc(-c4c[nH]c([C@@H]5CCCN5C(=O)[C@@H](NC(=O)OC)C(C)C)n4)cc3)cc2)c[nH]1)C(C)C [Daclatasvir],inactive: 33.1%
17,Cc1cnc(NC(=O)Nc2cc(Br)c(C)cc2OC[C@@H]2CNCCO2)cn1,inactive: 28.6%
18,"COc1ccc(CNC(=O)Nc2ncc([N+](=O)[O-])s2)cc1 [N-(4-Methoxybenzyl)-N'-(5-Nitro-1,3-Thiazol-2-Yl)Urea]",inactive: 43.1%
19,O=C(O)c1cc(N=Nc2ccc(O)c(C(=O)O)c2)ccc1O [Olsalazine],inactive: 43.3%
20,CC(C)C(=O)Oc1ccc(CO)cc1[C@H](CCN(C(C)C)C(C)C)c1ccccc1 [Fesoterodine],inactive: 34.6%
21,O=c1c2ccccc2oc2ccccc12 [Xanthone],inactive: 39%
22,O=c1c2ccccc2nc2n1CCc1c-2[nH]c2ccccc12 [Rutaecarpine],inactive: 42.2%
23,Cc1[nH]nc2ccc(-c3cncc(OC[C@@H](N)Cc4ccccc4)c3)cc12,inactive: 53.6%

row,SMILES,percentage of GFP+
1,CC(C)(O)CC(=O)NCCn1ccc2ncnc(Nc3ccc(Oc4cccc(C(F)(F)F)c4)c(Cl)c3)c21,inactive: 53.4%
2,C=C[C@]1(C)C[C@@H](OC(=O)CS[C@@H]2C[C@H]3CC[C@@H](C2)N3C)[C@]2(C)[C@H](C)CC[C@]3(CCC(=O)[C@H]32)[C@@H](C)[C@@H]1O [Retapamulin],inactive: 50%
3,Cc1cn([C@H]2C[C@H](N=[N+]=[N-])[C@@H](CO)O2)c(=O)[nH]c1=O [Zidovudine],inactive: 41.7%
4,C#Cc1cccc(Nc2ncnc3cc(OCCOC)c(OCCO)cc23)c1,inactive: 54.2%
5,Clc1ccc2c(c1)CCc1cccnc1C2=C1CCNCC1 [Desloratadine],inactive: 52.1%
6,Oc1cc(O)c(Cl)cn1 [Gimeracil],inactive: 39%
7,COc1ccc(CCc2nc3cc(-c4c(C)noc4C)ccc3n2C[C@H](C)N2CCOCC2)cc1Cl,inactive: 41%
8,Cc1c[nH]c(-c2cnc(NCCNc3ccc(C#N)cn3)nc2-c2ccc(Cl)cc2Cl)n1,inactive: 41.3%
9,C=C1CC[C@H](O)C/C1=C/C=C1\CCC[C@]2(C)[C@@H]([C@H](C)CCCC(C)C)CC[C@@H]12 [Cholecalciferol],inactive: 45.1%
10,CCOC(=O)c1ncn2c1CN(C)C(=O)c1cc(F)ccc1-2 [Flumazenil],inactive: 41.5%
11,CC1(C)S[C@@H]2[C@H](NC(=O)Cc3ccccc3)C(=O)N2[C@H]1C(=O)O [Benzylpenicillin],inactive: 41%
12,CC(C)(C)c1cc(NC(=O)Nc2ccc(-c3cn4c(n3)sc3cc(OCCN5CCOCC5)ccc34)cc2)no1 [Quizartinib],inactive: 20.8%
13,CCc1cnn2c(NCc3ccc[n+]([O-])c3)cc(N3CCCC[C@H]3CCO)nc12 [Dinaciclib],active: 13%
14,Cc1cc(=O)oc2c(C=O)c(O)ccc12,inactive: 48.1%
15,C=CC(C)(O)CC[C@@H]1[C@@]2(C)CCCC(C)(C)C2CC[C@@]1(C)O (some centres not stated) [Sclareol],inactive: 43.2%
16,COc1ccc(C2(C#N)CCC(C(=O)O)CC2)cc1OC1CCCC1 (configuration not stated) [Cilomilast],inactive: 36.1%
17,O=C1CCC(N2C(=O)c3ccccc3C2=O)C(=O)N1 (configuration not stated) [Thalidomide],inactive: 41%
18,Nc1nccc(Oc2ccc(NC(=O)c3cncc(-c4ccc(F)cc4)c3O)cc2F)c1Cl,inactive: 49.5%
19,O=S(=O)(c1ccccc1)c1cnc2c(N3CCNCC3)cccc2c1,inactive: 46.6%
20,CC(C)(C)C(=O)C(Oc1ccc(Cl)cc1)n1ccnc1 (configuration not stated) [Climbazole],inactive: 53.5%
21,CC(C)(O)c1ccccc1CC[C@@H](SCC1(CC(=O)O)CC1)c1cccc(/C=C/c2ccc3ccc(Cl)cc3n2)c1 [Montelukast],inactive: 45.2%
